In the supplement of paper PMC8728848:
This is one part of the list.

Columns and labels:
Assay in all cases: glycan array binding signal (z-score within array); higher = stronger binding
Conditions in all cases: glycan notation: IUPAC condensed, linker removed
[1] = molecular target: Neu5Ac(a2-3)Gal(b1-3)GalNAc
Method in brief: (§1)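 From the Consortium for Functional Glycomics database, 3228 arrays were curated, keeping only those whose protein sequence was available. Binding is given as a within-array Z-score averaged across arrays sharing a protein sequence and across linkers. Negative Z-scores can be read as non-binding.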

[2] = molecular target: Neu5Ac(a2-3)Gal(b1-3)GalNAc(b1-3)Gal(a1-4)Gal(b1-4)Glc
Method in brief: as §1

[3] = molecular target: Neu5Ac(a2-3)Gal(b1-3)GalNAc(b1-4)Gal(b1-4)Glc
Method in brief: as §1

[4] = molecular target: Neu5Ac(a2-3)Gal(b1-3)GalNAc(b1-4)[Neu5Ac(a2-3)]Gal(b1-4)Glc
Method in brief: as §1

[5] = molecular target: Neu5Ac(a2-3)Gal(b1-3)GalNAc(b1-4)[Neu5Ac(a2-8)Neu5Ac(a2-3)]Gal(b1-4)Glc
Method in brief: as §1

[6] = molecular target: Neu5Ac(a2-3)Gal(b1-3)GalNAc6S
Method in brief: as §1

[7] = molecular target: Neu5Ac(a2-3)Gal(b1-3)GlcNAc
Method in brief: as §1

[8] = molecular target: Neu5Ac(a2-3)Gal(b1-3)GlcNAc(b1-2)Man
Method in brief: as §1

[9] = molecular target: Neu5Ac(a2-3)Gal(b1-3)GlcNAc(b1-2)Man(a1-3)[GlcNAc(b1-4)][Neu5Ac(a2-3)Gal(b1-3)GlcNAc(b1-2)Man(a1-6)]Man(b1-4)GlcNAc(b1-4)GlcNAc
Method in brief: as §1

[10] = molecular target: Neu5Ac(a2-3)Gal(b1-3)GlcNAc(b1-2)Man(a1-3)[Neu5Ac(a2-3)Gal(b1-3)GlcNAc(b1-2)Man(a1-6)]Man(b1-4)GlcNAc(b1-4)GlcNAc
Method in brief: as §1

[11] = molecular target: Neu5Ac(a2-3)Gal(b1-3)GlcNAc(b1-2)[Neu5Ac(a2-3)Gal(b1-3)GlcNAc(b1-4)]Man(a1-6)[Neu5Ac(a2-3)Gal(b1-3)GlcNAc(b1-2)Man(a1-3)]Man(b1-4)GlcNAc(b1-4)GlcNAc
Method in brief: as §1

[12] = molecular target: Neu5Ac(a2-3)Gal(b1-3)GlcNAc(b1-3)Gal(b1-3)GlcNAc
Method in brief: as §1

[13] = molecular target: Neu5Ac(a2-3)Gal(b1-3)GlcNAc(b1-3)Gal(b1-4)GlcNAc
Method in brief: as §1

[14] = molecular target: Neu5Ac(a2-3)Gal(b1-3)GlcNAc(b1-3)GalNAc
Method in brief: as §1

[15] = molecular target: Neu5Ac(a2-3)Gal(b1-3)GlcNAc(b1-6)GalNAc
Method in brief: as §1

[16] = molecular target: Neu5Ac(a2-3)Gal(b1-3)GlcNAc6S
Method in brief: as §1

[17] = molecular target: Neu5Ac(a2-3)Gal(b1-3)[Fuc(a1-4)]GlcNAc
Method in brief: as §1

[18] = molecular target: Neu5Ac(a2-3)Gal(b1-3)[Fuc(a1-4)]GlcNAc(b1-3)Gal(b1-3)[Fuc(a1-4)]GlcNAc
Method in brief: as §1

[19] = molecular target: Neu5Ac(a2-3)Gal(b1-3)[Fuc(a1-4)]GlcNAc(b1-3)Gal(b1-4)[Fuc(a1-3)]GlcNAc
Method in brief: as §1

[20] = molecular target: Neu5Ac(a2-3)Gal(b1-3)[GlcNAc(b1-6)]GalNAc
Method in brief: as §1

[21] = molecular target: Neu5Ac(a2-3)Gal(b1-3)[Neu5Ac(a2-6)]GalNAc
Method in brief: as §1

[22] = molecular target: Neu5Ac(a2-3)Gal(b1-3)[Neu5Ac(a2-6)]GlcNAc(b1-3)[Fuc(a1-3)[Gal(b1-4)]GlcNAc(b1-6)]Gal(b1-4)Glc
Method in brief: as §1

[23] = molecular target: Neu5Ac(a2-3)Gal(b1-3)]Neu5Ac(a2-3)Gal(b1-4)]GlcNAc
Method in brief: as §1

Neu5Ac(a2-3)Gal(b1-4)Glc = molecular target: Neu5Ac(a2-3)Gal(b1-4)Glc
Method in brief: as §1

[24] = molecular target: Neu5Ac(a2-3)Gal(b1-4)GlcNAc
Method in brief: as §1

[25] = molecular target: Neu5Ac(a2-3)Gal(b1-4)GlcNAc(b1-2)Man
Method in brief: as §1

[26] = molecular target: Neu5Ac(a2-3)Gal(b1-4)GlcNAc(b1-2)Man(a1-3)[GlcNAc(b1-4)][Neu5Ac(a2-3)Gal(b1-4)GlcNAc(b1-2)Man(a1-6)]Man(b1-4)GlcNAc(b1-4)GlcNAc
Method in brief: as §1

[27] = molecular target: Neu5Ac(a2-3)Gal(b1-4)GlcNAc(b1-2)Man(a1-3)[Neu5Ac(a2-3)Gal(b1-4)GlcNAc(b1-2)Man(a1-6)]Man(b1-4)GlcNAc(b1-4)GlcNAc
Method in brief: as §1

[28] = molecular target: Neu5Ac(a2-3)Gal(b1-4)GlcNAc(b1-2)Man(a1-3)[Neu5Ac(a2-3)Gal(b1-4)GlcNAc(b1-2)Man(a1-6)]Man(b1-4)GlcNAc(b1-4)[Fuc(a1-6)]GlcNAc
Method in brief: as §1

[29] = molecular target: Neu5Ac(a2-3)Gal(b1-4)GlcNAc(b1-2)Man(a1-3)[Neu5Ac(a2-6)Gal(b1-4)GlcNAc(b1-2)Man(a1-6)]Man(b1-4)GlcNAc(b1-4)GlcNAc
Method in brief: as §1

[30] = molecular target: Neu5Ac(a2-3)Gal(b1-4)GlcNAc(b1-2)[Neu5Ac(a2-3)Gal(b1-4)GlcNAc(b1-4)]Man(a1-3)[GlcNAc(b1-4)][Neu5Ac(a2-3)Gal(b1-4)GlcNAc(b1-2)[Neu5Ac(a2-3)Gal(b1-4)GlcNAc(b1-6)]Man(a1-6)]Man(b1-4)GlcNAc(b1-4)GlcNAc
Method in brief: as §1

[31] = molecular target: Neu5Ac(a2-3)Gal(b1-4)GlcNAc(b1-2)[Neu5Ac(a2-3)Gal(b1-4)GlcNAc(b1-4)]Man(a1-3)[GlcNAc(b1-4)][Neu5Ac(a2-3)Gal(b1-4)GlcNAc(b1-4)Man(a1-6)]Man(b1-4)GlcNAc(b1-4)GlcNAc
Method in brief: as §1

[32] = molecular target: Neu5Ac(a2-3)Gal(b1-4)GlcNAc(b1-2)[Neu5Ac(a2-3)Gal(b1-4)GlcNAc(b1-6)]Man(a1-6)[Neu5Ac(a2-3)Gal(b1-4)GlcNAc(b1-2)Man(a1-3)][GlcNAc(b1-4)]Man(b1-4)GlcNAc(b1-4)GlcNAc
Method in brief: as §1

[33] = molecular target: Neu5Ac(a2-3)Gal(b1-4)GlcNAc(b1-3)Gal
Method in brief: as §1

[34] = molecular target: Neu5Ac(a2-3)Gal(b1-4)GlcNAc(b1-3)Gal(b1-3)GlcNAc
Method in brief: as §1

[35] = molecular target: Neu5Ac(a2-3)Gal(b1-4)GlcNAc(b1-3)Gal(b1-4)GlcNAc
Method in brief: as §1

[36] = molecular target: Neu5Ac(a2-3)Gal(b1-4)GlcNAc(b1-3)Gal(b1-4)GlcNAc(b1-2)Man(a1-3)[Neu5Ac(a2-3)Gal(b1-4)GlcNAc(b1-3)Gal(b1-4)GlcNAc(b1-2)Man(a1-6)]Man(b1-4)GlcNAc(b1-4)GlcNAc
Method in brief: as §1

B1: Tamarinin (protein)
chain: CDDSARAGNIVVYWGQGGSDNSEGSLKEACKSGHYNMIVLQQLIVYDDGRDPDLNLGAHCSDCTKLEEQIKYCQNKDIKILLQIGQVVPTQEDVKDVTKNLSEYLLKNFFSGKSGPLGEVYLNGIDIASVPEGNNLKFDELVEALNDSSTERRIYLSASPLCVYPDYYLNKAIQTEKLDFLFVQFFYQNPCIYTEGNPENLFEAMKTWTKNVPESMIFMALPATPNLDGYIPPRVLNKEILPAVSEASNFAGVMIFDRYFDRFRKYSSKIK
Q: Which “glycan array binding signal (z-score)” value [1] does the source give for B1 here?
A: The value was -0.03.

Q: What about the “glycan array binding signal (z-score)” value [2] of the same binder?
A: Its value is -0.286.

Q: And the “glycan array binding signal (z-score)” value [3]?
A: The value was 0.04.

Q: What about the “glycan array binding signal (z-score)” value [4] of the same binder?
A: The value was 1.02.

Q: And the “glycan array binding signal (z-score)” value [5]?
A: The value was 1.37.

Q: And the “glycan array binding signal (z-score)” value [6]?
A: Its value is -0.272.

Q: And the “glycan array binding signal (z-score)” value [7]?
A: The value was -0.114.

Q: What about the “glycan array binding signal (z-score)” value [8] of the same binder?
A: Its value is -0.361.

Q: What about the “glycan array binding signal (z-score)” value [9] of the same binder?
A: Its value is -0.013.

Q: What about the “glycan array binding signal (z-score)” value [10] of the same binder?
A: Its value is 0.161.

Q: And the “glycan array binding signal (z-score)” value [11]?
A: Its value is 0.303.

Q: What about the “glycan array binding signal (z-score)” value [12] of the same binder?
A: Its value is -0.373.

Q: And the “glycan array binding signal (z-score)” value [13]?
A: The value was -0.471.

Q: What about the “glycan array binding signal (z-score)” value [14] of the same binder?
A: Its value is -0.063.

Q: And the “glycan array binding signal (z-score)” value [15]?
A: The value was -0.359.

Q: What about the “glycan array binding signal (z-score)” value [16] of the same binder?
A: Its value is -0.297.

Q: What about the “glycan array binding signal (z-score)” value [17] of the same binder?
A: Its value is -0.401.

Q: And the “glycan array binding signal (z-score)” value [18]?
A: Its value is 1.67.

Q: What about the “glycan array binding signal (z-score)” value [19] of the same binder?
A: The value was 3.05.

Q: What about the “glycan array binding signal (z-score)” value [20] of the same binder?
A: Its value is -0.268.

Q: What about the “glycan array binding signal (z-score)” value [21] of the same binder?
A: The value was 2.07.

Q: What about the “glycan array binding signal (z-score)” value [22] of the same binder?
A: The value was -0.485.

Q: And the “glycan array binding signal (z-score)” value [23]?
A: The value was -0.353.

Q: And the “glycan array binding signal (z-score)” value (Neu5Ac(a2-3)Gal(b1-4)Glc)?
A: Its value is -0.022.

Q: And the “glycan array binding signal (z-score)” value [24]?
A: Its value is -0.352.

Q: What about the “glycan array binding signal (z-score)” value [25] of the same binder?
A: Its value is 1.24.

Q: And the “glycan array binding signal (z-score)” value [26]?
A: The value was -0.344.

Q: What about the “glycan array binding signal (z-score)” value [27] of the same binder?
A: The value was -0.31.

Q: What about the “glycan array binding signal (z-score)” value [28] of the same binder?
A: Its value is -0.374.

Q: What about the “glycan array binding signal (z-score)” value [29] of the same binder?
A: Its value is -0.369.

Q: What about the “glycan array binding signal (z-score)” value [30] of the same binder?
A: Its value is -0.293.

Q: What about the “glycan array binding signal (z-score)” value [31] of the same binder?
A: The value was -0.177.

Q: And the “glycan array binding signal (z-score)” value [32]?
A: Its value is -0.424.

Q: What about the “glycan array binding signal (z-score)” value [33] of the same binder?
A: The value was -0.373.

Q: And the “glycan array binding signal (z-score)” value [34]?
A: The value was -0.51.

Q: And the “glycan array binding signal (z-score)” value [35]?
A: Its value is -0.297.

Q: And the “glycan array binding signal (z-score)” value [36]?
A: The value was -0.342.
